# Experimental data as given in PubChem BioAssay AID489038 (National Center for Advancing Translational Sciences (NCATS), 2010).
# Where “and” joins values, the source holds several entries; their conditions need not be identical. Identical values can stand only once. The shares of active, inactive and inconclusive entries below differ from those in the screen. Potencies of inconclusive entries are doubtful fits and often do not repeat. Calls of active or inactive are those of the source. Calls come from the whole dose curve; as a rule, active = well fitted inhibition curve with a large enough effect; inconclusive = small, poorly fitted or top-dose-only effect, or effect the other way; inactive = no such curve, though single readings can be large or run the other way.
# Experiment: DHR3 selectivity assay for inhibitors of ROR gamma transcriptional activity
# Conditions: Drosophila S2 Gal4-DHR3 UAS-luciferase, 20 h; series mostly up to 92.2 µM
# From the text: NIH Molecular Libraries Probe Production Network [MLPCN] NIH Chemical Genomics Center [NCGC] MLPCN Grant: R03 DA026211-01 Assay Provider: Dan Littman, New York University Assay Overview: The retinoic acid-related orphan receptor (ROR) gamma is a transcription factor that has a central role in the differentiation of Th17 cells, a subset of T helper cells that secrete the inflammatory cytokines IL-17A, IL-17F, and IL-22. Th17 cells have been implicated in graft versus host disease, autoimmune disease and asthma. RORgamma is induced in naive T helper cells in the presence of TGF-beta combined with IL-6, IL-21, or IL-23, and thereafter directs the expression of the Th17 lineage cytokines. To identify […] inhibitors, a Drosophila Schneider cell line was stably transfected with two vectors: a gene expressing a fusion of the Gal4 DNA binding domain and the transactivation domain of the Drosophila Hormone Receptor 3 (DHR3), under the control of the metallothionine promoter and a Photinus luciferase reporter regulated by the Gal4 binding site enhancer, UAS. […] Small molecule inhibitors that inhibit components common to the RORgamma and DHR3 assays, such as proteins that interact with general nuclear hormone receptors, will be active in both assays and thus scored as nonselective.
# Assay Protocol Summary: For screening, 600 cells in 4 uL/well were dispensed into white solid 1536-well plates (Grenier) using a solenoid-based dispenser. Following transfer of 23 nL compound or DMSO vehicle by a pin tool, the plates were incubated 1 hr at ambient temperature, and 1 uL/well copper sulfate (700 uM final concentration) was added. The plates were centrifuged 15 s at 1000 RPM and incubated 20 hr at ambient temperature. After addition of 1.5 uL Photinus luciferase detection reagent, the plates were incubated 10 min at ambient temperature and then read by an ViewLux (Perkin Elmer) to detect luminescence.
# Potency is the fitted concentration of half-maximal effect; tags give direction and shape of the fitted curve.
row,Compound,Potency
1,COc1cc(O)c(C(CC(=O)N2CCCC(C)C2)c2cccc3ccccc23)c(OC)c1 (stereo not given),inactive
2,COc1cc(O)c(C(CC(=O)N2CCC(C)CC2)c2ccc3c(c2)OCO3)c(OC)c1 (stereo not given),"inconclusive: 3.63 µM [activator, full curve, poor fit] and inactive"
3,Cc1ccc(C)c(/C=N/n2cc(-c3ccccc3)[nH]c2=S)c1,"inconclusive: 3.23 µM [inhibitor, full curve, poor fit]"
4,COc1cc(O)c(C(CC(=O)N2CCCC(COc3ccc(F)cc3)C2)c2ccc3c(c2)OCO3)c(OC)c1 (stereo not given),"inconclusive: 2.88 µM [inhibitor, partial curve, poor fit]"
5,COc1cc(O)c(C(CC(=O)N2CCCC(C(=O)c3ccccc3)C2)c2ccc3c(c2)OCO3)c(OC)c1 (stereo not given),inactive
6,CCOc1cccc(-c2cc(-c3n[nH]c(=S)n3CC)c3ccccc3n2)c1,"inconclusive: 456 nM [activator, full curve, poor fit] and inconclusive: 2.88 µM [activator, full curve]"
7,Cc1ccc(C)c(C(CC(=O)N2CCCC(C)C2)c2ccc3c(c2)OCO3)c1O (stereo not given),inactive
8,COc1ccccc1C(CC(=O)N1CCCC(C)C1)c1ccccc1 (stereo not given),inactive
9,COc1ccc(CNC(=O)[C@@H](NC(=O)C2CCN(C(=O)[C@@H]3CCCN3C(=O)OC(C)(C)C)CC2)C(C)C)cc1,inconclusive: 0.0011 µM [activator]
10,COCOc1cc(OC)cc(OC)c1C(CC(=O)N1CC(C)CC(C)C1)c1ccc2c(c1)OCO2 (stereo not given),"inconclusive: 0.229 µM [inhibitor, full curve, poor fit]"
11,COc1cc(OC)c(C(c2ccccc2)C(C)(C)C(=O)N2CC(C)CC(C)C2)c(OC)c1 (stereo not given),"inconclusive: 22.9 µM [inhibitor, full curve, poor fit]"
12,COc1cc(O)c([C@H](CC(=O)N2CC(C)CC(C)C2)c2ccc3c(c2)OCO3)c(OC)c1 (stereo not given in full),"inconclusive: 0.0512 µM [activator, full curve, poor fit]"
13,COc1ccccc1C(CC(=O)N1C[C@H](C)C[C@H](C)C1)c1ccccc1 (stereo not given in full),"inconclusive: 72.4 µM [inhibitor, partial curve, poor fit]"
14,COc1ccc(C(CC(=O)N2CCCC(C)C2)c2ccccc2)cc1 (stereo not given),"inconclusive: 12.9 µM [activator, full curve, poor fit]"
15,Cc1cc(C)nc(-n2nc(C)cc2NC(=O)CNC(C)c2ccccc2)n1 (stereo not given),"inconclusive: 4.07 µM [activator, full curve]"
16,Cc1cccc(O)c1C(CC(=O)N1CCCC(C)C1)c1ccc2c(c1)OCO2 (stereo not given),"inconclusive: 8.12 µM [activator, partial curve, poor fit]"
17,COc1cc(O)c(C(CC(=O)NCC2CCCCC2)c2ccc3c(c2)OCO3)c(OC)c1 (stereo not given),"inconclusive: 72.4 µM [activator, single point]"
18,COc1cc(O)c(C(CC(=O)N2CCCCC2)c2ccc3c(c2)OCO3)c(OC)c1 (stereo not given),inconclusive: 0.0006 µM [activator]
19,CCn1cc(C(=O)O)c(=O)c2cnc(N3CCN(C(=S)NC(=O)c4ccccc4)CC3)nc21,"inconclusive: 3.63 µM [activator, full curve, poor fit]"
20,CC1CCCN(C(=O)CC(c2ccc3c(c2)OCO3)c2ccc3ccccc3c2O)C1 (stereo not given),inactive

row,Compound,Potency
1,Cc1ccc(OCCCC(=O)Nc2nc3ccccc3[nH]2)cc1,"inconclusive: 11.5 µM [activator, partial curve]"
2,C[C@@H]1[C@H](C)CC[C@]2(C(=O)O)CC[C@]3(C)C(=CC[C@@H]4[C@@]5(C)CC[C@H](O)C(C)(C)[C@H]5CC[C@]43C)[C@@H]12,active: 18.2 µM
3,COc1cc(O)c(C(CC(=O)N2CCCC(C#N)C2)c2ccc3c(c2)OCO3)c(OC)c1 (stereo not given),inactive
4,COc1cc(O)c(C(CC(=O)NCc2ccccc2)c2ccc3c(c2)OCO3)c(OC)c1 (stereo not given),inactive
5,COc1ccccc1C(CC(=O)Nc1ccc(F)cc1)c1ccccc1 (stereo not given),"inconclusive: 40.7 µM [activator, partial curve, poor fit]"
6,COc1cc(O)c(C(CC(=O)N2CCCC(C)C2)c2ccc(C(C)C)cc2)c(OC)c1 (stereo not given),"inconclusive: 45.7 µM [inhibitor, partial curve, poor fit]"
7,COc1cc(O)c(C(CC(=O)N2CCCC(C)C2)c2ccc(-c3ccccc3)cc2)c(OC)c1 (stereo not given),inactive
8,CCOc1cccc(-c2cc(-c3n[nH]c(=O)n3CC)c3ccccc3n2)c1,"inconclusive: 14.4 µM [activator, single point]"
9,COc1cc(O)c(C(CC(=O)N2CC(C)CC(C)C2)c2ccc3c(c2)OCO3)c(OC)c1 (stereo not given),"inconclusive: 11.5 µM [activator, partial curve, poor fit] and inconclusive: 72.4 µM [activator, single point]"
10,COc1ccc(-c2c[n+]3c(n2-c2ccc(C)cc2)CCCCC3)cc1,active: 8.12 µM
11,CC1CCCN(C(=O)CC(c2ccc3c(c2)OCO3)c2c(O)cccc2Cl)C1 (stereo not given),"inconclusive: 22.9 µM [inhibitor, partial curve, poor fit]"
12,COc1cc(O)c(C(CC(=O)N2CCN(c3ccc(F)cc3)CC2)c2ccc3c(c2)OCO3)c(OC)c1 (stereo not given),"inconclusive: 4.07 µM [inhibitor, full curve]"
13,CCC(=O)C1CCCN(C(=O)CC(c2ccc3c(c2)OCO3)c2c(O)cc(OC)cc2OC)C1 (stereo not given),inactive
14,CC(C)[C@H](NC(=O)C1CCN(C(=O)[C@@H]2CCCN2C(=O)OC(C)(C)C)CC1)C(=O)NCc1ccc(F)cc1,inconclusive: 0.0007 µM [activator]
15,CC1CCCN(C(=O)CC(c2ccc3c(c2)OCO3)c2ccc(I)cc2O)C1 (stereo not given),"inconclusive: 11.5 µM [inhibitor, full curve, poor fit]"
16,CCOc1ccc(-c2cc(CCCC(=O)NCc3cccnc3)no2)cc1,active: 0.812 µM
17,Cc1cccc(C(CC(=O)NCCc2ccccc2)c2ccccc2)c1O (stereo not given),inactive
18,COc1cc(O)c(CCC(=O)N2CCCC(C)C2)c(OC)c1 (stereo not given),"inconclusive: 0.0018 µM [inhibitor, full curve, poor fit]"
19,COc1ccc(C(=O)Nc2cc(-c3ccc(C)cc3)no2)cc1,"inconclusive: 12.9 µM [inhibitor, full curve, poor fit]"
20,CCOC(=O)c1sc(NC(=O)c2ccc(S(=O)(=O)N(C)C)cc2)nc1C,active: 0.0457 µM
